Some of the results follow. The data describe in vitro nicking of single-stranded DNA by Rep domains (1 h at 37 °C, 3 µM enzyme); the outer parts of the 90-letter strands are left off. Numbers give uncut DNA relative to the enzyme-free pool, as log2; strong cutting gives strongly negative numbers. There is no active / inactive call. Because reads are shares of a total, they shift together; uncut strands gain when others are lost, and binding without cutting may add a little.
What was measured:
Assay in all cases: uncleaved DNA left, log2 of reads against the no-enzyme library (log2 ratio); higher = less cleavage (more negative = more Rep cleavage of the k-mer); sequences stand for … in CTCGTCCG…ACCGGAGA
[1] = tested on: T1, Rep nickase domain of Muscovy duck circovirus
T1 sequence (protein, residues 1-111, tag omitted): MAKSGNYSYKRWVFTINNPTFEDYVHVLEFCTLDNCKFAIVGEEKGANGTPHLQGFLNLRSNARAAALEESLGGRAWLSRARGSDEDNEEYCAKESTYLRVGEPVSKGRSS
Method: (§1)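 A pool of 90-nt single-stranded DNAs with seven random bases just before the constant AC of the nick site (name = the seven bases) was cut by 3 µM recombinant His6-SUMO-tagged Rep nickase domain (300 nM DNA, 50 mM HEPES pH 8.0, 50 mM NaCl, 1 mM MnCl2, 1 h, 37 °C, three replicates). Uncut DNA was amplified and sequenced.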

[2] = tested on: T2, Rep nickase domain of banana bunchy top virus
T2 sequence (protein, residues 1-94, tag omitted): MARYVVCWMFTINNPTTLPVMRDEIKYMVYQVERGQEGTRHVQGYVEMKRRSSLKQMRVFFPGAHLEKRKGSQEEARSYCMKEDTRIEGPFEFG
Method: as §1

[3] = tested on: T3, Rep nickase domain of cabbage leaf curl virus
T3 sequence (protein, residues 1-116, tag omitted): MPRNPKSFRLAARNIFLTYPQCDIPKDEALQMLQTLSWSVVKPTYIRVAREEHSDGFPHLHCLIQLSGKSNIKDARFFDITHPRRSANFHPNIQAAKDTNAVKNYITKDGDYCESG
Method: as §1

[4] = tested on: T4, Rep nickase domain of chickpea chlorotic dwarf virus
T4 sequence (protein, residues 1-124, tag omitted): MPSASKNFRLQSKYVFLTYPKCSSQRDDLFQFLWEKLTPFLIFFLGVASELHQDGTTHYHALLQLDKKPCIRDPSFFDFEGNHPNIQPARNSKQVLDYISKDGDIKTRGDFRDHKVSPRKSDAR
Method: as §1

[5] = tested on: T5, Rep nickase domain of faba bean necrotic yellows virus
T5 sequence (protein, residues 1-98, tag omitted): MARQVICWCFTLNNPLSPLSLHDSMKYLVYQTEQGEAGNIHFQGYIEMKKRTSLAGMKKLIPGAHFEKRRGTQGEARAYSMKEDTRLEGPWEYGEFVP
Method: as §1

[6] = tested on: T6, Rep nickase domain of maize striate mosaic virus
T6 sequence (protein, residues 1-117, tag omitted): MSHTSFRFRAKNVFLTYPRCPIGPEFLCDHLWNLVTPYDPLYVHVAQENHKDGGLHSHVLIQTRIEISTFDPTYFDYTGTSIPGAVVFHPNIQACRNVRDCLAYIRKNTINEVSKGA
Method: as §1

[7] = tested on: T7, Rep nickase domain of porcine circovirus 2
T7 sequence (protein, residues 2-116, tag omitted): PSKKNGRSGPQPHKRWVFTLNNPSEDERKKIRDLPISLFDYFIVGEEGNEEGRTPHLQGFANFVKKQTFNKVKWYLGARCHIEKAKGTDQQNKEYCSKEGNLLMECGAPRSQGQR
Method: as §1

[8] = tested on: T8, Rep nickase domain of tomato golden mosaic virus
T8 sequence (protein, residues 1-124, tag omitted): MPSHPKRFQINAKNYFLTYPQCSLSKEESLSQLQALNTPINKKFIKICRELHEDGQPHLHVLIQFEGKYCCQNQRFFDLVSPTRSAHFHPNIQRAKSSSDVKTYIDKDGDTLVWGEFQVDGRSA
Method: as §1

[9] = tested on: T9, Rep nickase domain of tomato yellow leaf curl virus
T9 sequence (protein, residues 1-136, tag omitted): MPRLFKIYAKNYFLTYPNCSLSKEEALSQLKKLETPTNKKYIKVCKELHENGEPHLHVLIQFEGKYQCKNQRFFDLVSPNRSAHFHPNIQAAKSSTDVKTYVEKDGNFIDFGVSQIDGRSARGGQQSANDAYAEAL
Method: as §1

[10] = tested on: T10, Rep nickase domain of wheat dwarf virus
T10 sequence (protein, residues 1-137, tag omitted): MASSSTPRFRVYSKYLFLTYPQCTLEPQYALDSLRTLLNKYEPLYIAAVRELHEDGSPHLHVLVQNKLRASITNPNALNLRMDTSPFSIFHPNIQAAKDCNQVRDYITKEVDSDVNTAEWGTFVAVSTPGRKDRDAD
Method: as §1

Sequence	uncleaved DNA left (log2) [1]	uncleaved DNA left (log2) [2]	uncleaved DNA left (log2) [3]	uncleaved DNA left (log2) [4]	uncleaved DNA left (log2) [5]	uncleaved DNA left (log2) [6]	uncleaved DNA left (log2) [7]	uncleaved DNA left (log2) [8]	uncleaved DNA left (log2) [9]	uncleaved DNA left (log2) [10]
AAATGAT	-0.278	0.0285	-3.43	-2.57	0.0537	-0.941	-3.65	-1.85	-0.226	-1.66
CCTCAAT	-0.0977	-0.188	-0.0128	-0.0673	-0.0453	0.146	-0.146	-0.172	0.0189	-0.11
GTCACCC	0.023	0.0764	0.265	0.766	-0.0468	1.43	-0.132	-0.00742	0.0725	0.0307
AGAATGT	0.0453	-0.00359	0.04	0.211	0.122	0.13	-0.183	-0.05	0.0295	0.0899
AGGCTGT	-0.0955	-0.0102	0.226	1.27	0.0562	1.67	0.17	-0.0192	-0.0608	-0.0268
TTGCCGC	-0.208	-0.19	-0.934	-0.451	-0.213	-0.926	-0.303	-0.324	-0.112	-0.122
GGGCGCA	-0.0541	0.0642	0.759	1.74	0.0327	2.1	0.252	0.0996	0.0372	0.0937
GAAGCGG	0.122	0.0409	0.325	1.03	0.0484	1.06	0.126	0.145	-0.0316	-0.0232
AGCATGC	0.0474	0.12	-0.385	-0.222	0.0541	-0.834	0.228	-0.0162	0.081	0.12
CGCACCA	0.0454	-0.0156	0.00557	-0.7	0.000283	-0.246	-0.109	-0.00969	-0.00555	0.0534
GGTGCTA	0.0239	0.0918	0.622	1.33	0.0206	1.9	0.21	0.125	0.136	0.15
TTGTGGC	0.00563	-0.00767	-0.206	-0.582	-0.00859	-0.977	0.159	-0.101	-0.0391	-0.0825
ATCGCTT	-0.0149	-0.129	-0.186	-1.92	-0.0623	-0.585	-0.058	-0.0452	-0.0244	-0.0666
ATTATTA	-0.0849	-0.189	-0.0767	-1.23	-0.038	-0.67	-0.109	0.0165	0.0397	0.0639
ACTTTGA	0.00277	-0.0517	-0.364	-0.327	-0.052	-1.18	-0.0186	-0.166	-0.111	-0.11
CCTGGAC	0.0678	0.0545	0.367	1.1	0.015	1.26	0.216	0.0978	0.0449	-0.0342
ACAGCCC	-0.0749	-0.103	-0.284	-0.082	-0.112	-0.582	-0.0587	-0.067	-0.249	-0.153
AGGTAAA	-0.0499	0.0206	0.152	0.437	-0.00363	0.306	-0.00117	0.0263	0.012	-0.0394
GCATCCG	0.018	-0.0265	-0.677	-0.421	-0.0806	-1	0.161	-0.0062	-0.0347	-0.078
GATCTTA	0.0315	0.17	0.348	0.301	0.0661	1.17	0.0616	0.051	0.141	0.152

Sequence	uncleaved DNA left (log2) [1]	uncleaved DNA left (log2) [2]	uncleaved DNA left (log2) [3]	uncleaved DNA left (log2) [4]	uncleaved DNA left (log2) [5]	uncleaved DNA left (log2) [6]	uncleaved DNA left (log2) [7]	uncleaved DNA left (log2) [8]	uncleaved DNA left (log2) [9]	uncleaved DNA left (log2) [10]
ATGGACG	0.107	-0.0851	-0.717	-0.686	0.0236	-1.03	0.216	0.0207	0.137	0.0212
CCCCCGT	-0.288	-0.0824	-0.452	-0.894	-0.17	-1.03	-0.276	-0.114	-0.255	-0.251
CGGTGTG	-0.0745	-0.302	-0.623	-0.315	0.0123	-0.754	-0.103	-0.109	-0.0497	-0.354
AAGATGA	0.00294	0.0957	0.369	1.16	0.161	1.34	0.207	0.133	-0.0496	0.0822
ACTGCGT	0.036	-0.0903	-0.824	-0.0906	-0.0414	-0.696	0.0967	-0.158	-0.117	-0.192
ATCGGCT	0.0801	0.0656	-0.105	-0.181	0.0511	-0.197	0.0719	0.0427	0.0841	0.0635
GTACCTA	-0.0255	0.104	0.169	0.713	-0.056	1.47	-0.147	0.0746	0.042	0.0752
CCGCAGA	-0.0995	-0.154	-0.0032	-0.0516	-0.192	-0.416	-0.0551	-0.0605	-0.0339	-0.115
TAAGGTC	-0.0132	-0.0168	0.0597	-0.191	-0.0252	1.2	-0.244	0.0103	-0.0402	-0.0747
ATTAGGG	0.169	0.0773	-0.229	-0.178	0.046	-0.867	0.159	0.153	0.104	-0.0104
TGTACAC	-0.00427	0.0628	0.315	0.751	-0.0724	1.32	0.0879	0.0545	0.0254	0.101
CAAGCAG	-0.0805	-0.0959	-0.0882	0.387	-0.0878	-0.327	0.103	-0.0801	-0.0579	-0.0686
CGACCGT	-0.00864	-0.0607	0.108	0.149	0.00667	-0.167	-0.0375	0.0202	0.04	0.0327
ACCCCAT	-0.215	-0.106	-0.211	-0.681	-0.0702	-0.495	-0.279	-0.175	-0.0519	0.0161
AATTATT	-3.85	-4.43	-4.01	-3.93	-3.88	-2.6	-4.64	-3.59	-0.15	-3.71
AGATTTG	0.0348	-0.039	-0.292	-0.145	0.0458	-0.843	0.147	-0.0244	-0.0453	0.0412
GGAATAC	0.0424	0.182	0.683	1.47	0.0374	1.88	0.259	0.0382	0.124	0.259
AACCTAG	0.00714	-0.0123	-0.688	-0.578	0.137	-1.3	-0.214	0.132	0.102	-0.0524
GATATAT	0.135	-0.0081	0.418	0.583	0.0842	1.32	-0.157	0.156	0.158	0.167
TAGCAAG	0.0933	-0.152	-0.655	-0.619	0.175	-1.1	0.116	-0.0198	-0.00916	-0.0657

Sequence	uncleaved DNA left (log2) [1]	uncleaved DNA left (log2) [2]	uncleaved DNA left (log2) [3]	uncleaved DNA left (log2) [4]	uncleaved DNA left (log2) [5]	uncleaved DNA left (log2) [6]	uncleaved DNA left (log2) [7]	uncleaved DNA left (log2) [8]	uncleaved DNA left (log2) [9]	uncleaved DNA left (log2) [10]
CGTTGGG	-0.0927	-0.167	-0.654	-0.396	-0.021	-0.766	0.0206	-0.123	0.0619	-0.152
CTAAACT	0.11	0.0553	-0.0912	-2.91	0.00883	-0.695	-0.185	-0.0123	0.0503	-0.104
CACTAAA	-0.169	-0.0751	-0.161	-0.86	-0.0753	-0.697	-1.34	-0.0665	-0.166	-0.0497
AGCGAGA	-0.0335	0.147	0.207	0.721	0.151	1.29	0.0891	0.0664	0.0475	0.114
ATAGATC	0.107	-0.0014	0.0285	0.188	0.0741	-0.315	0.151	-0.0227	-0.0786	0.0738
GACCATG	0.172	-0.0129	-0.135	0.116	0.0322	-0.428	0.151	0.0427	0.175	0.0876
CAAAGGT	0.0468	-0.0471	-0.038	0.0773	-0.0561	0.867	0.0565	0.143	-0.135	-0.0849
CGTCCAT	0.0306	-0.12	0.0906	-0.033	-0.0721	-0.133	-0.192	-0.193	0.0608	0.119
TAACCTG	-0.00946	-0.0161	-0.0879	-0.913	0.0388	0.65	-0.287	-0.0939	0.00333	-0.00267
AAATTGT	-1.31	0.0282	-3.95	-3.27	0.099	-2.98	-3.91	-2.72	0.121	-3.02
GGTTTCA	0.0929	0.185	0.461	1.02	0.0797	1.85	0.161	0.115	0.239	0.23
GACGACA	-0.0899	0.0489	0.413	0.605	-0.0236	1.48	-0.123	0.0316	0.00906	0.129
GGGTCTC	0.0539	0.12	0.595	1.62	-0.0262	2	0.119	0.0706	0.0773	0.153
ACTCGCG	0.0101	0.151	0.27	1.75	0.016	1.62	0.122	0.0744	0.077	0.0363
TCCTGAA	-0.0425	0.0735	0.13	-0.156	-0.161	-0.247	-0.0921	-0.00443	-0.0185	0.0142
CTAACAG	0.026	0.036	-0.834	-1.58	0.0559	-1.12	0.102	-0.0178	-0.042	-0.016
TGCATTC	0.0325	0.0324	0.0903	0.219	-0.0169	-0.457	0.146	-0.133	0.152	0.11
GTAAATC	0.138	0.251	0.385	0.943	0.17	1.51	0.121	0.189	0.201	0.105
GGGAGCA	0.125	0.182	1.04	2.15	0.115	2.34	0.263	0.243	0.185	0.331
TGGTATT	-3.29	-1.78	0.162	-1.39	-1.94	1.42	-3.44	-0.131	0.104	-0.2
